The text below walks through data of paper PMC12529666.

The list shows a part of the results, in another mix than the full data. At the low end of the ranking the order means little. The list shows a part of the results.

In assay [1] the target is AGO2 WT (phosphosite mutant background) S387D + S824A + S828D + S831D + S834A (UniProt Q9UKV8). The experiment in a line: RNA Bind-n-Seq (nitrocellulose filter binding and sequencing). The following applies: constant regions annealed to DNA blockers; guide miR-122 5' phosphate; 30 mM Tris pH 8.0, 100 mM potassium acetate, 2 mM magnesium acetate, 0.5 mM TCEP, 0.005% NP-40, 0.01 mg/ml yeast tRNA; 3 nM AGO2-miR-122, 100 nM RNA library …; high values mean tight binding.

In assay [2] the target is AGO2 F182del S387D + S824A + S828D + S831D + S834A + del182-182 (UniProt Q9UKV8). The description is as above. The following applies: constant regions annealed to DNA blockers; guide miR-122 5' phosphate; 30 mM Tris pH 8.0, 100 mM potassium acetate, 2 mM magnesium acetate, 0.5 mM TCEP, 0.005% NP-40, 0.01 mg/ml yeast tRNA; 3 nM AGO2-miR-122, 100 nM RNA library …; high values mean tight binding.

With “GAGUUCUACAGUCCGACGAUCCCAACAUACUUUACACCUGGAAUUCUCGGGUGCCAA / UGGAGUGUGACAAUGGUGUUUG / GATCGTCGGACTGTAGAACTC / TTGGCACCCGAGAATTCCA”, the binding signal (fold enrichment over input) in assay [1] came out at 0.121; in assay [2], 0.0803.

“GAGUUCUACAGUCCGACGAUCCCAACGUAUCUCACACCUGGAAUUCUCGGGUGCCAA / UGGAGUGUGACAAUGGUGUUUG / GATCGTCGGACTGTAGAACTC / TTGGCACCCGAGAATTCCA”: the binding signal (fold enrichment over input) in assay [1] turned out to be 0.141; in assay [2], 1.35.

In the case of “GAGUUCUACAGUCCGACGAUCCCAACGCACUUCACACCUGGAAUUCUCGGGUGCCAA / UGGAGUGUGACAAUGGUGUUUG / GATCGTCGGACTGTAGAACTC / TTGGCACCCGAGAATTCCA”, the values for the binding signal (fold enrichment over input) in assay [1] and in assay [2] were 0.149 and 0.82, respectively.

Consider “GAGUUCUACAGUCCGACGAUCCCAACGCGUCCCGCACCUGGAAUUCUCGGGUGCCAA / UGGAGUGUGACAAUGGUGUUUG / GATCGTCGGACTGTAGAACTC / TTGGCACCCGAGAATTCCA”, for which the binding signal (fold enrichment over input) in assay [1] was 0.105; in assay [2], 0.0444.

With “GAGUUCUACAGUCCGACGAUCCCAACGUGCUUCACACCUGGAAUUCUCGGGUGCCAA / UGGAGUGUGACAAUGGUGUUUG / GATCGTCGGACTGTAGAACTC / TTGGCACCCGAGAATTCCA”, the values for the binding signal (fold enrichment over input) in assay [1] and in assay [2] were 0.117 and 0.235, respectively.

With “GAGUUCUACAGUCCGACGAUCCCAACGUGCCUUGCACCUGGAAUUCUCGGGUGCCAA / UGGAGUGUGACAAUGGUGUUUG / GATCGTCGGACTGTAGAACTC / TTGGCACCCGAGAATTCCA”, the binding signal (fold enrichment over input) worked out at 0.104 in assay [1] and 0.0442 in assay [2].

Turning to “GAGUUCUACAGUCCGACGAUCCCAACAUGUCCUACACCUGGAAUUCUCGGGUGCCAA / UGGAGUGUGACAAUGGUGUUUG / GATCGTCGGACTGTAGAACTC / TTGGCACCCGAGAATTCCA”, the values for the binding signal (fold enrichment over input) in assay [1] and in assay [2] were 0.117 and 0.262, respectively.

As to “GAGUUCUACAGUCCGACGAUCCCAACGCGUUCUGCACCUGGAAUUCUCGGGUGCCAA / UGGAGUGUGACAAUGGUGUUUG / GATCGTCGGACTGTAGAACTC / TTGGCACCCGAGAATTCCA”, the binding signal (fold enrichment over input) in assay [1] was 0.0976; in assay [2], 0.0373.

With “GAGUUCUACAGUCCGACGAUCCCAACGUACCUCACACCUGGAAUUCUCGGGUGCCAA / UGGAGUGUGACAAUGGUGUUUG / GATCGTCGGACTGTAGAACTC / TTGGCACCCGAGAATTCCA”, the binding signal (fold enrichment over input) in assay [1] came out at 0.149; in assay [2] it was 1.57.

For “GAGUUCUACAGUCCGACGAUCCCAACACAUUCUGCACCUGGAAUUCUCGGGUGCCAA / UGGAGUGUGACAAUGGUGUUUG / GATCGTCGGACTGTAGAACTC / TTGGCACCCGAGAATTCCA”, the figures for the binding signal (fold enrichment over input) in assay [1] and in assay [2] were 0.0862 and 0.0753, respectively.

With “GAGUUCUACAGUCCGACGAUCCCAACACACCUCACACCUGGAAUUCUCGGGUGCCAA / UGGAGUGUGACAAUGGUGUUUG / GATCGTCGGACTGTAGAACTC / TTGGCACCCGAGAATTCCA”, the binding signal (fold enrichment over input) in assay [1] stood at 0.251; in assay [2] it was 4.6.

On to “GAGUUCUACAGUCCGACGAUCCCAACGUACCUUGCACCUGGAAUUCUCGGGUGCCAA / UGGAGUGUGACAAUGGUGUUUG / GATCGTCGGACTGTAGAACTC / TTGGCACCCGAGAATTCCA”, for which the values for the binding signal (fold enrichment over input) in assay [1] and in assay [2] were 0.0913 and 0.0432, respectively.

In the case of “GAGUUCUACAGUCCGACGAUCCCAACGUGUCCUGCACCUGGAAUUCUCGGGUGCCAA / UGGAGUGUGACAAUGGUGUUUG / GATCGTCGGACTGTAGAACTC / TTGGCACCCGAGAATTCCA”, the results for the binding signal (fold enrichment over input) in assay [1] and in assay [2] were 0.0878 and 0.0349, respectively.

In the case of “GAGUUCUACAGUCCGACGAUCCCAACGCACUUCGCACCUGGAAUUCUCGGGUGCCAA / UGGAGUGUGACAAUGGUGUUUG / GATCGTCGGACTGTAGAACTC / TTGGCACCCGAGAATTCCA”, the results for the binding signal (fold enrichment over input) in assay [1] and in assay [2] were 0.0901 and 0.0595, respectively.

For the sequence “GAGUUCUACAGUCCGACGAUCCCAACACGUCCCACACCUGGAAUUCUCGGGUGCCAA / UGGAGUGUGACAAUGGUGUUUG / GATCGTCGGACTGTAGAACTC / TTGGCACCCGAGAATTCCA”, the binding signal (fold enrichment over input) in assay [1] came out at 0.127; in assay [2] it was 0.446.

Regarding “GAGUUCUACAGUCCGACGAUCCCAACACACCCCACACCUGGAAUUCUCGGGUGCCAA / UGGAGUGUGACAAUGGUGUUUG / GATCGTCGGACTGTAGAACTC / TTGGCACCCGAGAATTCCA”, the binding signal (fold enrichment over input) in assay [1] was 0.238; in assay [2], 2.15.

Take “GAGUUCUACAGUCCGACGAUCCCAACAUAUUUCGCACCUGGAAUUCUCGGGUGCCAA / UGGAGUGUGACAAUGGUGUUUG / GATCGTCGGACTGTAGAACTC / TTGGCACCCGAGAATTCCA”: the binding signal (fold enrichment over input) in assay [1] is 0.0922; in assay [2], 0.0521.

In the case of “GAGUUCUACAGUCCGACGAUCCCAACAUAUUUUGCACCUGGAAUUCUCGGGUGCCAA / UGGAGUGUGACAAUGGUGUUUG / GATCGTCGGACTGTAGAACTC / TTGGCACCCGAGAATTCCA”, the results for the binding signal (fold enrichment over input) in assay [1] and in assay [2] were 0.0998 and 0.0519, respectively.

Take “GAGUUCUACAGUCCGACGAUCCCAACACACCUUACACCUGGAAUUCUCGGGUGCCAA / UGGAGUGUGACAAUGGUGUUUG / GATCGTCGGACTGTAGAACTC / TTGGCACCCGAGAATTCCA”: the figures for the binding signal (fold enrichment over input) in assay [1] and in assay [2] were 0.164 and 1.89, respectively.
